Experiment: soluble on expression in E. coli; label from the status in PepcDB or PDB records

For “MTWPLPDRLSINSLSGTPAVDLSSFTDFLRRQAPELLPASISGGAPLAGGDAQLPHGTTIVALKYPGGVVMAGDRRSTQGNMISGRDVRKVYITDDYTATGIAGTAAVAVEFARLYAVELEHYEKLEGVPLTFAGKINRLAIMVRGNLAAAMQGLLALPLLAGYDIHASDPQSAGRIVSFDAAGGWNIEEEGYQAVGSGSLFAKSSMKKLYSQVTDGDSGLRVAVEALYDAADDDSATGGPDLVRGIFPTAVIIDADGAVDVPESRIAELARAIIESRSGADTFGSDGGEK”, the “soluble on expression in E. coli” value was “soluble”.
